The antibiotic and cytotoxicity screens of Wong et al. (2023)
The list shows a part of the results.

Test system: HSkMC (human skeletal muscle cells)
Assay: cytotoxicity call (relative viability < 0.9)
Conditions: 10 µM

SMILES	cytotoxicity call
C[C@H]1CN([C@@H](C)CO)C(=O)c2cccc(NS(C)(=O)=O)c2O[C@@H]1CN(C)C(=O)NC1CCCCC1	inactive
COc1ccc(NC(=O)Nc2ccc3c(c2)C(=O)N([C@@H](C)CO)C[C@@H](C)[C@H](CN(C)Cc2ccc(-c4ccccc4)cc2)O3)cc1	inactive
Cc1ccc(S(=O)(=O)Nc2ccc3c(c2)CC(=O)N([C@@H](C)CO)C[C@@H](C)[C@H](CN(C)C(=O)Nc2ccc(C(F)(F)F)cc2)O3)cc1	inactive
Cc1noc(C)c1NC(=O)Nc1ccc2c(c1)C(=O)N([C@@H](C)CO)C[C@H](C)[C@H](CN(C)C(=O)Nc1ccc(F)cc1)OCCCC[C@H](C)O2	inactive
CN1CCN(C(=O)C[C@@H]2C[C@H]3c4cc(NC(=O)c5ccc6c(c5)OCO6)ccc4O[C@H]3[C@H](CO)O2)CC1	inactive
C[C@@H]1CN([C@@H](C)CO)C(=O)c2cc(NC(=O)Cc3ccccc3)ccc2O[C@@H](C)CCCCO[C@H]1CN(C)C(=O)Cc1ccccc1	inactive
C[C@H](CO)N1C[C@H](C)[C@H](CN(C)Cc2ccc3c(c2)OCCN3C)OCc2ccccc2-c2c(n(C)c3ccccc23)C1=O	inactive
COc1ccc(S(=O)(=O)N(C)C[C@@H]2OCCCC[C@H](C)Oc3ccc(NS(=O)(=O)c4cn(C)cn4)cc3C(=O)N([C@@H](C)CO)C[C@@H]2C)cc1	inactive
C[C@@H]1CN([C@H](C)CO)S(=O)(=O)c2ccc(C#CC3CC3)cc2O[C@@H]1CN(C)C(=O)c1cccc(F)c1	inactive
CN1CCN(C(=O)C[C@@H]2CC[C@@H]3[C@H](COc4ccc(NC(=O)C5CCCCC5)cc4C(=O)N3C)O2)CC1	inactive
O=C(C[C@@H]1CC[C@@H]2[C@H](COC[C@@H](O)CN2C(=O)C2CC2)O1)NCc1ccncc1	inactive
C[C@@H]1CN([C@@H](C)CO)S(=O)(=O)c2ccc(C#C[C@@H](C)O)cc2O[C@@H]1CN(C)C(=O)CN(C)C	inactive
C[C@@H]1CN([C@H](C)CO)C(=O)Cc2cc(NS(C)(=O)=O)ccc2O[C@@H]1CN(C)Cc1ccc(C(=O)Nc2ccccc2N)cc1	inactive
C[C@H](CO)N1C[C@H](C)[C@H](CN(C)C(=O)Nc2ccccc2)Oc2ccc(NC(=O)Nc3cccc4ccccc34)cc2CC1=O	inactive
C[C@@H]1CN([C@H](C)CO)C(=O)c2cc(NC(=O)Nc3ccc(C(F)(F)F)cc3)ccc2O[C@@H](C)CCCCO[C@H]1CN(C)C(=O)Nc1ccc(F)cc1	inactive
Cc1noc(C)c1NC(=O)Nc1ccc2c(c1)CC(=O)N([C@@H](C)CO)C[C@@H](C)[C@H](CN(C)S(C)(=O)=O)O2	inactive
O=C1O[C@H](c2ccccc2)[C@H](c2ccccc2)N2[C@H]1[C@@H](C(=O)N1CCCCCCC1)[C@]1(C(=O)Nc3ccc(C#CC4(O)CCCCCC4)cc31)[C@H]2c1ccc(O)cc1	inactive

Test system: HepG2
Assay: cytotoxicity call (relative viability < 0.9)
Conditions: 10 µM

SMILES	cytotoxicity call
C[C@H](CO)N1C[C@H](C)[C@@H](CN(C)C(=O)C2CCCCC2)Oc2ncc(C#CC3(O)CCCC3)cc2C1=O	inactive
C[C@@H]1CN([C@@H](C)CO)C(=O)c2cccc(NS(=O)(=O)c3cn(C)cn3)c2O[C@@H]1CN(C)CC1CC1	inactive
C[C@H]1CN([C@@H](C)CO)C(=O)c2cccc(NC(=O)C3CC3)c2O[C@@H]1CN(C)Cc1ccc(-c2ccccc2)cc1	inactive
C[C@@H]1CCCCO[C@H](CN(C)C(=O)C2CCCCC2)[C@@H](C)CN([C@@H](C)CO)C(=O)c2cc(NC(=O)c3ccccc3)ccc2O1	inactive
C[C@H](CO)N1C[C@H](C)[C@@H](CN(C)CC2CCCCC2)Oc2ccc(NC(=O)Nc3cccc4ccccc34)cc2CC1=O	inactive
C[C@H]1CN([C@@H](C)CO)C(=O)c2c(c3ccccc3n2C)-c2ccccc2CO[C@H]1CN(C)S(=O)(=O)c1ccc(Cl)cc1	active
COc1ccccc1S(=O)(=O)N[C@H]1CC[C@@H](CCNC(=O)C2CCOCC2)O[C@H]1CO	inactive
C[C@H](CO)N1C[C@H](C)[C@@H](CN(C)Cc2ccc(Cl)c(Cl)c2)Oc2c(NC(=O)C3CCCCC3)cccc2C1=O	inactive
COc1ccccc1OCC(O)CN1CCN(CC(=O)Nc2c(C)cccc2C)CC1.Cl.Cl (configuration not stated)	inactive
C[C@@H]1CCCCO[C@@H](CN(C)Cc2ccncc2)[C@@H](C)CN([C@H](C)CO)C(=O)c2cc(NC(=O)NC3CCCCC3)ccc2O1	inactive
O=C(C[C@@H]1CC[C@@H]2[C@H](COC[C@@H](O)CN2S(=O)(=O)c2cccc(F)c2)O1)NCCCN1CCOCC1	inactive
CNC(=O)C[C@@H]1CC[C@@H]2[C@H](COC[C@H](O)CN2C(=O)c2ccc3c(c2)OCO3)O1	inactive
CN(CC(=O)O)[C@H]1CCS(=O)(=O)C1	inactive
CNC[C@@H]1OCCCC[C@H](C)Oc2ccc(NC(=O)Nc3cccc4ccccc34)cc2C(=O)N([C@@H](C)CO)C[C@H]1C	inactive
C[C@H]1CN([C@@H](C)CO)C(=O)c2ccccc2-c2ccccc2CO[C@@H]1CN(C)Cc1ccc(C(F)(F)F)cc1	inactive
C[C@@H]1CCCCO[C@H](CN(C)C(=O)c2ccncc2)[C@@H](C)CN([C@H](C)CO)C(=O)c2cc(NS(C)(=O)=O)ccc2O1	inactive
C[C@@H]1CN([C@@H](C)CO)C(=O)c2cc(C#CC3CC3)cnc2O[C@@H]1CN(C)S(=O)(=O)c1cccc(F)c1	inactive
COc1ccc(S(=O)(=O)N2C[C@@H](O)COC[C@@H]3O[C@@H](CC(=O)NCc4ccc(Cl)c(Cl)c4)CC[C@H]32)cc1	active
O=C(NCCN1CCCC1)[C@H]1N[C@H]2c3ccc(-c4ccccc4)c(=O)n3C[C@H]2[C@@H]1CO	inactive
CCOc1ccc(NC(C)=O)cc1	inactive

SMILES	cytotoxicity call
COc1cccc(C#Cc2ccc3c(c2)O[C@@H](CN(C)C(=O)CN2CCOCC2)[C@@H](C)CN([C@H](C)CO)S3(=O)=O)c1	inactive
C[C@@H]1CN([C@H](C)CO)C(=O)c2cc(NC(=O)CCC(F)(F)F)ccc2O[C@H]1CN(C)Cc1ccc(-c2ccccc2)cc1	active
COCC(=O)Nc1ccc2c(c1)C(=O)N(C)[C@H]1CC[C@@H](CC(=O)NCc3ccc(OC)cc3)O[C@@H]1CO2	inactive
C[C@H]1CN([C@@H](C)CO)C(=O)c2cccc(NS(C)(=O)=O)c2O[C@@H]1CN(C)C(=O)NC1CCCCC1	inactive
COc1ccc(NC(=O)Nc2ccc3c(c2)C(=O)N([C@@H](C)CO)C[C@@H](C)[C@H](CN(C)Cc2ccc(-c4ccccc4)cc2)O3)cc1	active
Cc1ccc(S(=O)(=O)Nc2ccc3c(c2)CC(=O)N([C@@H](C)CO)C[C@@H](C)[C@H](CN(C)C(=O)Nc2ccc(C(F)(F)F)cc2)O3)cc1	inactive
Cc1noc(C)c1NC(=O)Nc1ccc2c(c1)C(=O)N([C@@H](C)CO)C[C@H](C)[C@H](CN(C)C(=O)Nc1ccc(F)cc1)OCCCC[C@H](C)O2	inactive
CN1CCN(C(=O)C[C@@H]2C[C@H]3c4cc(NC(=O)c5ccc6c(c5)OCO6)ccc4O[C@H]3[C@H](CO)O2)CC1	inactive
C[C@@H]1CN([C@@H](C)CO)C(=O)c2cc(NC(=O)Cc3ccccc3)ccc2O[C@@H](C)CCCCO[C@H]1CN(C)C(=O)Cc1ccccc1	inactive
C[C@H](CO)N1C[C@H](C)[C@H](CN(C)Cc2ccc3c(c2)OCCN3C)OCc2ccccc2-c2c(n(C)c3ccccc23)C1=O	inactive
COc1ccc(S(=O)(=O)N(C)C[C@@H]2OCCCC[C@H](C)Oc3ccc(NS(=O)(=O)c4cn(C)cn4)cc3C(=O)N([C@@H](C)CO)C[C@@H]2C)cc1	inactive
C[C@@H]1CN([C@H](C)CO)S(=O)(=O)c2ccc(C#CC3CC3)cc2O[C@@H]1CN(C)C(=O)c1cccc(F)c1	inactive
CN1CCN(C(=O)C[C@@H]2CC[C@@H]3[C@H](COc4ccc(NC(=O)C5CCCCC5)cc4C(=O)N3C)O2)CC1	inactive
O=C(C[C@@H]1CC[C@@H]2[C@H](COC[C@@H](O)CN2C(=O)C2CC2)O1)NCc1ccncc1	inactive
C[C@@H]1CN([C@@H](C)CO)S(=O)(=O)c2ccc(C#C[C@@H](C)O)cc2O[C@@H]1CN(C)C(=O)CN(C)C	inactive
C[C@@H]1CN([C@H](C)CO)C(=O)Cc2cc(NS(C)(=O)=O)ccc2O[C@@H]1CN(C)Cc1ccc(C(=O)Nc2ccccc2N)cc1	inactive
C[C@H](CO)N1C[C@H](C)[C@H](CN(C)C(=O)Nc2ccccc2)Oc2ccc(NC(=O)Nc3cccc4ccccc34)cc2CC1=O	inactive
C[C@@H]1CN([C@H](C)CO)C(=O)c2cc(NC(=O)Nc3ccc(C(F)(F)F)cc3)ccc2O[C@@H](C)CCCCO[C@H]1CN(C)C(=O)Nc1ccc(F)cc1	active
Cc1noc(C)c1NC(=O)Nc1ccc2c(c1)CC(=O)N([C@@H](C)CO)C[C@@H](C)[C@H](CN(C)S(C)(=O)=O)O2	inactive
O=C1O[C@H](c2ccccc2)[C@H](c2ccccc2)N2[C@H]1[C@@H](C(=O)N1CCCCCCC1)[C@]1(C(=O)Nc3ccc(C#CC4(O)CCCCCC4)cc31)[C@H]2c1ccc(O)cc1	inactive
